Experimental data as given in a collection of fitness landscapes (doi:10.1016/j.celrep.2020.107928).
Whole data set: some 81,000 sequences, median “one-hybrid fitness for binding NBS DNA” near -0.1, cut for the highest 2% near 0.36. The list shows a part of the results.

B1: Caulobacter ParB omega fusion; a variant is named by its letters at X, in order, B8GW30 (parent)
chain: MESVVVGEPGMSEGRRGLGRGLSALLGEVDAAPAQAPGEQLGGSREAPIEILQRNPDQPRRTFREEDLEDLSNSIREKGVLQPILVRPSPDTAGEYQIVAGERAWRAAQRAGLKTVPIMVRELDDLAVLEIGIIENVQRADLNVLEEALSYKVLMEKFERTQENIAQTIGKSXSHVANXMRLLXLPDEVQSYLVSGELTAXHARAIAAAADPVALAKQIIEGGLSVRETEALARKAPNLSAGKSKGGRPPRVKDTDTQALESDLSSVLGLDVSIDHRGSTGTLTITYATLEQLDDLCNRLTRGI

Variants of: B1
Experiment: one-hybrid fitness for binding NBS DNA (the Noc-binding site; scaled: cognate 1, non-cognate 0); higher = stronger binding
Settings: with NBS DNA site
Summary of the method: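 Pre- and post-selection plasmids were Illumina-sequenced, three replicate libraries were pooled, and any variant with under 10 reads was removed. The libraries were Caulobacter ParB with four specificity codons randomised, selected in E. coli USO through a HIS3 reporter whose site is 19 bp from the promoter. Cells grew 48 hours at 37°C on M9 without histidine, with 0.1 mM IPTG and 5 mM 3-AT. Fitness is the log change in variant-to-wild-type read ratio, rescaled against cognate and non-cognate.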

Variant | one-hybrid fitness for binding NBS DNA
PIGV | ≤ 0.2
VMTW | ≤ 0.2
MRLY | ≤ 0.2
HHEK | ≤ 0.2
SRTR | ≤ 0.2
PELG | ≤ 0.2
QIDF | ≤ 0.2
DPYY | ≤ 0.2
KESY | ≤ 0.2
VQNV | ≤ 0.2
SLAT | ≤ 0.2
IPDC | ≤ 0.2
QTPM | ≤ 0.2
CHSG | ≤ 0.2
GFNY | ≤ 0.2
DMHE | ≤ 0.2
ITGS | ≤ 0.2
AIRT | ≤ 0.2
IRPR | ≤ 0.2
CVAQ | ≤ 0.2
PRPY | ≤ 0.2
HIRG | ≤ 0.2
PAKI | ≤ 0.2
GCGL | ≤ 0.2
DPTC | ≤ 0.2

Variant | one-hybrid fitness for binding NBS DNA
VMTT | ≤ 0.2
LCAT | ≤ 0.2
TYEH | ≤ 0.2
RKEW | ≤ 0.2
AAQK | ≤ 0.2
YLNT | ≤ 0.2
NQWK | ≤ 0.2
NCCR | ≤ 0.2
HAHV | ≤ 0.2
TPVM | ≤ 0.2
RELS | ≤ 0.2
HKIL | ≤ 0.2
REWR | ≤ 0.2
DKDT | ≤ 0.2
WRDG | ≤ 0.2
RPER | ≤ 0.2
ASMS | ≤ 0.2
MREG | ≤ 0.2
MHSD | ≤ 0.2
GTTN | ≤ 0.2
AYDV | ≤ 0.2
DPNR | ≤ 0.2
YLIW | ≤ 0.2
HLPK | ≤ 0.2
YAAY | ≤ 0.2

Variant | one-hybrid fitness for binding NBS DNA
VYIS | ≤ 0.2
DDKT | ≤ 0.2
NAAC | ≤ 0.2
KLRR | 0.31
WENS | ≤ 0.2
TGMF | ≤ 0.2
VWNY | ≤ 0.2
WNDI | ≤ 0.2
RMHK | ≤ 0.2
FNPM | ≤ 0.2
VLVL | ≤ 0.2
SSYF | ≤ 0.2
YPGG | ≤ 0.2
DMTR | ≤ 0.2
CYTF | ≤ 0.2
RPHF | ≤ 0.2
EHKS | ≤ 0.2
SSTL | ≤ 0.2
QKWS | 0.33
YHTP | ≤ 0.2
PCPK | ≤ 0.2
NCSM | ≤ 0.2
PETF | ≤ 0.2
RFGM | ≤ 0.2
MTYT | ≤ 0.2

Variant | one-hybrid fitness for binding NBS DNA
QVLW | ≤ 0.2
YACT | ≤ 0.2
DNLI | ≤ 0.2
GSVR | ≤ 0.2
IVVF | ≤ 0.2
DYFM | ≤ 0.2
LYMT | ≤ 0.2
YNAS | ≤ 0.2
YTCR | ≤ 0.2
DCPY | ≤ 0.2
QRWS | 0.54
YHKY | ≤ 0.2
VSVL | ≤ 0.2
PVPR | ≤ 0.2
GYFS | ≤ 0.2
CLEF | ≤ 0.2
QVQN | ≤ 0.2
RRGT | 0.732
DQYD | ≤ 0.2
HVLS | ≤ 0.2
DRIC | ≤ 0.2
SIEF | ≤ 0.2
KTNQ | ≤ 0.2
NIQM | ≤ 0.2
RNKL | ≤ 0.2

Variant | one-hybrid fitness for binding NBS DNA
RDYS | ≤ 0.2
RTWH | ≤ 0.2
AKYS | ≤ 0.2
TIYV | ≤ 0.2
PRGP | ≤ 0.2
PLNY | ≤ 0.2
QNPN | ≤ 0.2
TDSW | ≤ 0.2
LGET | ≤ 0.2
GISA | ≤ 0.2
VRRK | ≤ 0.2
HKRV | ≤ 0.2
DGRF | ≤ 0.2
VYQR | ≤ 0.2
YVML | ≤ 0.2
TNKH | ≤ 0.2
QCFT | 0.424
NMQS | ≤ 0.2
KRSD | ≤ 0.2
LPLW | ≤ 0.2
HVTI | ≤ 0.2
ATMT | ≤ 0.2
QWKF | ≤ 0.2
PQRS | ≤ 0.2
FDAE | ≤ 0.2

Variant | one-hybrid fitness for binding NBS DNA
ACRC | ≤ 0.2
SNEC | ≤ 0.2
ETKS | ≤ 0.2
WVMV | ≤ 0.2
DMPT | ≤ 0.2
GCLT | ≤ 0.2
YTRC | ≤ 0.2
RQDL | ≤ 0.2
QCDG | ≤ 0.2
RWYV | ≤ 0.2
EPGL | ≤ 0.2
YKLV | ≤ 0.2
SLGY | ≤ 0.2
DMGT | ≤ 0.2
WPAF | ≤ 0.2
FLQS | ≤ 0.2
LARV | ≤ 0.2
QATH | ≤ 0.2
PIYG | ≤ 0.2
VSSW | ≤ 0.2
PNQG | ≤ 0.2
MISC | ≤ 0.2
RRQK | 0.261
KPYR | ≤ 0.2
QSDY | ≤ 0.2

Variant | one-hybrid fitness for binding NBS DNA
ACNS | ≤ 0.2
PFNA | ≤ 0.2
SAKI | ≤ 0.2
TVVG | ≤ 0.2
AGCP | ≤ 0.2
FQTR | ≤ 0.2
GMFG | ≤ 0.2
SNEV | ≤ 0.2
AKKT | ≤ 0.2
IFFR | ≤ 0.2
FGLE | ≤ 0.2
NEQR | ≤ 0.2
LNYC | ≤ 0.2
LGIS | ≤ 0.2
IHNS | ≤ 0.2
AYKT | ≤ 0.2
LPEY | ≤ 0.2
KHYV | ≤ 0.2
HPCG | ≤ 0.2
PYLM | ≤ 0.2
RVST | 0.463
TKRW | ≤ 0.2
ICLF | ≤ 0.2
EDLC | ≤ 0.2
QGKS | ≤ 0.2

Variant | one-hybrid fitness for binding NBS DNA
CRQA | ≤ 0.2
HACA | ≤ 0.2
ELMD | ≤ 0.2
CHQG | ≤ 0.2
DYLR | ≤ 0.2
FVGG | ≤ 0.2
GREM | ≤ 0.2
ELDC | ≤ 0.2
CWSG | ≤ 0.2
WQEV | ≤ 0.2
EYLT | ≤ 0.2
TYNP | ≤ 0.2
PLLF | ≤ 0.2
IPQG | ≤ 0.2
RSLT | 0.292
NMWR | ≤ 0.2
VEIG | ≤ 0.2
FEMS | ≤ 0.2
RYAC | ≤ 0.2
NPMM | ≤ 0.2
